Consider eleven substances from paper PMC3562248.

Sequences of proteins named here, by UniProt entry; tags and fusion partners are left off. A change or cut given only in a name is not applied to a line headed by its entry. Residues count along the entry.
UniProt Q13330: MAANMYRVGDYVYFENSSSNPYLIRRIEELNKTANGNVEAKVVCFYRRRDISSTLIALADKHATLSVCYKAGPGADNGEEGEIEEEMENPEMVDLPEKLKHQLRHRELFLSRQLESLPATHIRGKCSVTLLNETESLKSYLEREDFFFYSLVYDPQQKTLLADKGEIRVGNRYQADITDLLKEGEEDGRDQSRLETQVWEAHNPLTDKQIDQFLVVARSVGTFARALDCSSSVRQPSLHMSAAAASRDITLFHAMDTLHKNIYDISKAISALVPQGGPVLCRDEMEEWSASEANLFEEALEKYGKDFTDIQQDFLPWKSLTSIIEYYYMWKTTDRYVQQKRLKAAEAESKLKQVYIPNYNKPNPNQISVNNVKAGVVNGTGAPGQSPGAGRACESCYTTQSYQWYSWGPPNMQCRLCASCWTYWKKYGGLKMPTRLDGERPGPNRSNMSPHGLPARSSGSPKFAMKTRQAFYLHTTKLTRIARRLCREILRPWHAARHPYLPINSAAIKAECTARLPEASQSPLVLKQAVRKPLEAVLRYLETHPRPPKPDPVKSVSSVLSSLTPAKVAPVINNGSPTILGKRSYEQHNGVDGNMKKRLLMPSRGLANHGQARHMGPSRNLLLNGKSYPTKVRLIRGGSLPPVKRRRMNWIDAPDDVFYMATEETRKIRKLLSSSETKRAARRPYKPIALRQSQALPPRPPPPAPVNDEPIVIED
Flag-MTA1(1–460), expressed in 293T cells: residues 1-460 of Q13330
UniProt O94776: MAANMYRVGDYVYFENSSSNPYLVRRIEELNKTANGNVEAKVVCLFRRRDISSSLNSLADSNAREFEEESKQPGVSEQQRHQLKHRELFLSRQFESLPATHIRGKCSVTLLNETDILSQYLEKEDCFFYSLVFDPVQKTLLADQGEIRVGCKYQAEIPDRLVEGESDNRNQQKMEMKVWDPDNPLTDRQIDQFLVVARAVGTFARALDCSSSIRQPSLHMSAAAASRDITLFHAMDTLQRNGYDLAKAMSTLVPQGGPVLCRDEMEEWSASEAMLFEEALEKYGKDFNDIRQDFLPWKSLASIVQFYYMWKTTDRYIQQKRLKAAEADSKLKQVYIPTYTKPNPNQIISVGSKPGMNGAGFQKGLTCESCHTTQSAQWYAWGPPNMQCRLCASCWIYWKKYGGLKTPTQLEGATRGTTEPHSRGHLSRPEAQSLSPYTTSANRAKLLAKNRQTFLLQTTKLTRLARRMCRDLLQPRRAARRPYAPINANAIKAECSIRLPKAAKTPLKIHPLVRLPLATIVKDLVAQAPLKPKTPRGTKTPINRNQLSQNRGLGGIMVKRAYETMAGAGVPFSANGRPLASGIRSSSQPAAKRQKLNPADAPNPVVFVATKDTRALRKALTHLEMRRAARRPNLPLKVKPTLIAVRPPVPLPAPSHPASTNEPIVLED
UniProt Q13547: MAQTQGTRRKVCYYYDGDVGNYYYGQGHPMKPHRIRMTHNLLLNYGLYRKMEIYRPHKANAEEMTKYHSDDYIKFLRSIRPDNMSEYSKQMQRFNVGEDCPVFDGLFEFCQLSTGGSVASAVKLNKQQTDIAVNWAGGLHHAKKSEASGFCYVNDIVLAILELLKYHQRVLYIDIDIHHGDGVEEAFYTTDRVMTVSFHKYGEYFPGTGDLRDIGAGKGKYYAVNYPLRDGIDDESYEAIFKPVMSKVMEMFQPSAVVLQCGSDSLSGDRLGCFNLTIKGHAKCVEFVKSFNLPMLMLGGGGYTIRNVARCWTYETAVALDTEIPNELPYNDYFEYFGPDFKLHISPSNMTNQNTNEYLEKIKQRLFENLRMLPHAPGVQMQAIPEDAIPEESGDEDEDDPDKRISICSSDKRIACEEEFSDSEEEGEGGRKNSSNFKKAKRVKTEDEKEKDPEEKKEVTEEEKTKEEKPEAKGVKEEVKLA
UniProt Q92769: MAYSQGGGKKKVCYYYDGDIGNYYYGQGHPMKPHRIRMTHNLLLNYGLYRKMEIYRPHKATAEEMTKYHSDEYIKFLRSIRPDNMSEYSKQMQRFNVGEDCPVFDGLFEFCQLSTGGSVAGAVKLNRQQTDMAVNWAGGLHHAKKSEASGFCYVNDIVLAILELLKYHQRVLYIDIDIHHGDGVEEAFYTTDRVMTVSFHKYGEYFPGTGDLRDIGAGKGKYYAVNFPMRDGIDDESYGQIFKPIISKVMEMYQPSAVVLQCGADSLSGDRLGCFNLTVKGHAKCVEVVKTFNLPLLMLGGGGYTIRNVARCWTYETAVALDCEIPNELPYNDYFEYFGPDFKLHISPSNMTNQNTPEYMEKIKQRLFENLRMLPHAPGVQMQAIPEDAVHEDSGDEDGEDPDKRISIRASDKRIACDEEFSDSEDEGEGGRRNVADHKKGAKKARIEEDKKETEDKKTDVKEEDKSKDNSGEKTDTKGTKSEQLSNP
UniProt Q14839: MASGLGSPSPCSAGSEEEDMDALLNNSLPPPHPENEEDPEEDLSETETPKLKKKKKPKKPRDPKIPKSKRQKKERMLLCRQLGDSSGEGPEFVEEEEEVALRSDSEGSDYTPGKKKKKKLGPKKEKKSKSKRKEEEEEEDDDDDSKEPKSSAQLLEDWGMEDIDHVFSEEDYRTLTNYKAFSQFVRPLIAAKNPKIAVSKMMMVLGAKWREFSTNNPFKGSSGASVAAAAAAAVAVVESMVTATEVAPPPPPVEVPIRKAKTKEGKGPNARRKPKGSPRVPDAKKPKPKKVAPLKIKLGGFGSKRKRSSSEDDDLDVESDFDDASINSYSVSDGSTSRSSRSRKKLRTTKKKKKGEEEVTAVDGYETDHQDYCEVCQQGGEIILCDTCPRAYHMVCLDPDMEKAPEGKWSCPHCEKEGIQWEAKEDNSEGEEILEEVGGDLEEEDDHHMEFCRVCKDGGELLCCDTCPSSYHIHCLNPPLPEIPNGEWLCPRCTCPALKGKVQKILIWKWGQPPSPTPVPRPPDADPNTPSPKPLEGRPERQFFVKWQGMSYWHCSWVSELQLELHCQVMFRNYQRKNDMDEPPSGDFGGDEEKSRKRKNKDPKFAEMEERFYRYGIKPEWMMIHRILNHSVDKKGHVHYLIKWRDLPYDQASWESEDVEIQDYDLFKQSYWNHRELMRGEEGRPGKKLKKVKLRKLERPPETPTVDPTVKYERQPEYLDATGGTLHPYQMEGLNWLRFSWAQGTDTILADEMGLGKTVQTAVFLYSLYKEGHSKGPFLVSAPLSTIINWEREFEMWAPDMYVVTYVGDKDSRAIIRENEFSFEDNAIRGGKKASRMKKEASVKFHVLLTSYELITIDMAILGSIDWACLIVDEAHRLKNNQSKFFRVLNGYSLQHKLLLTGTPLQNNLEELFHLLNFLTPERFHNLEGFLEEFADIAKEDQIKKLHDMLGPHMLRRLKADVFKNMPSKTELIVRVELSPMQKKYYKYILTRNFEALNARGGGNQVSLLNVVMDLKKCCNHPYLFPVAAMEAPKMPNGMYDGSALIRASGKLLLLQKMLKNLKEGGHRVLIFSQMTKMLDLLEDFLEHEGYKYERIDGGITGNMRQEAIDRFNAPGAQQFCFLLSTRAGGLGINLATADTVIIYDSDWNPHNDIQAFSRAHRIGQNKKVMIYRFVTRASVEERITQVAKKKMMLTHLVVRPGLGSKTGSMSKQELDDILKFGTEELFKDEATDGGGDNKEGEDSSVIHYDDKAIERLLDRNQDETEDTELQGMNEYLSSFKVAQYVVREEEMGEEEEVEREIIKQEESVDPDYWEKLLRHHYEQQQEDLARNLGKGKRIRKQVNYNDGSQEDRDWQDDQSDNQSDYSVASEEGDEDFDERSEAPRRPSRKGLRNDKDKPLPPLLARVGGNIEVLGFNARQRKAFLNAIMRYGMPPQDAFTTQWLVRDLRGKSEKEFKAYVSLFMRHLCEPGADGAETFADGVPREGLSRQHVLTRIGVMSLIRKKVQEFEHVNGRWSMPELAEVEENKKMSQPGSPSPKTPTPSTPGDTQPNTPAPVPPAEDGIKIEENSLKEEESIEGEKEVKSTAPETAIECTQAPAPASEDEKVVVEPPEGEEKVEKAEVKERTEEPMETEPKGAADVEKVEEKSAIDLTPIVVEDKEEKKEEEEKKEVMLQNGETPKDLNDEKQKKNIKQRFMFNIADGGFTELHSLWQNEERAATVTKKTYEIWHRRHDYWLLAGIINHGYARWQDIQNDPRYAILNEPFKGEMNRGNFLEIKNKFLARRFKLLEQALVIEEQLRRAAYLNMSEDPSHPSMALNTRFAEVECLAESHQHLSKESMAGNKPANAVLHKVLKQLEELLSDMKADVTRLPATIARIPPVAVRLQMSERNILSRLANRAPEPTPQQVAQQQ

The target of assay [1] is histone H3 N-terminal tail peptide (aa 1-21), unmodified, C-terminal biotin (UniProt P68431). The experiment in a line: pull-down; about 1 μg biotinylated histone tail peptide on streptavidin agarose beads, about 250 μg HeLa nuclear extract, 20 mM HEPES pH 7.9, 150 mM KCl, 0.1% NP-40, 3 h at 4°C; western blot; only the target purified. Background: A western blot detects proteins with antibodies after separation by electrophoresis.

The target is the same in assay [2]. The experiment in a line: pull-down; whole cell extracts of 293T cells expressing Flag- or GFP-tagged MTA proteins on immobilised H3 tail peptide; western blot; only the target purified.
In assay [3] the target is Flag-MTA1 full length, expressed in 293T cells (UniProt Q13330). The experiment in a line: co-IP; whole cell extracts of 293T cells transfected with Flag-tagged MTA1 or MTA2 proteins, anti-Flag M2 beads, western blot for endogenous subunits.
Assay [4] deals with Flag-MTA1(1–460), expressed in 293T cells (UniProt Q13330). The assay is described as above.
Assay [5] deals with Flag-MTA1(454–715), expressed in 293T cells (UniProt Q13330). The assay is described as above.
Assay [6] has as its target Flag-tagged MTA2 C-terminal region 427–668, expressed in 293T cells (UniProt O94776). The assay is described as above.
For assay [7], the target named is Flag-tagged MTA2 N-terminal region 1–434, expressed in 293T cells (UniProt O94776). The description is as above.
Assay [8] addresses Flag-tagged full-length MTA2, expressed in 293T cells (UniProt O94776). Described as above.
Assay [9] concerns the target histone H3 N-terminal tail peptide (aa 1-21), unmodified, C-terminal biotin (UniProt P68431). The experiment in a line: pull-down; 35S-methionine-labelled in vitro translated protein (TNT reticulocyte lysate, diluted 1:10 with binding buffer) on immobilised H3 tail peptides; autoradiography; only the target purified.
The target of assay [10] is H3K9 methylated histone H3 tail peptide (aa 1-21), degree of methylation not stated (UniProt P68431). Described as above.
The target of assay [11] is acetylated histone H3 tail peptide (aa 1-21) (UniProt P68431). The description is as above.

No constants are given. Whether binding was seen depends on the method and setting. In cells and extracts the contact can be indirect. Some binding calls cover weakened binding; strength is not graded here.

Regarding “CoREST (endogenous, HeLa) (from UniProt Q9UKL0 1-485)”, the binding entry in [1] is listed as “no binding”.
As to “Flag-tagged MTA2 C-terminal region 427–668, expressed in 293T cells (from UniProt O94776 427-668) (domain or fragment)”, the binding result in [2] is reported as “binds”.
Regarding “HDAC1 (endogenous, 293T) (from UniProt Q13547 1-482) (enzyme)”, the binding entry in assay [3] is given as “binds”; in [4], “binds”; in [5], “no binding”; in assay [6] it was “no binding”; in assay [7] it was “binds”; in assay [8], “binds”.
Turning to “GFP-MTA1(454–715), expressed in 293T cells (from UniProt Q13330 454-715) (domain or fragment)”, the binding result in assay [2] is “binds”.
On to “NCoR (endogenous, HeLa) (from UniProt O75376 1-2440)”, for which the binding entry in [1] was “no binding”.
With “MTA2 C-terminal fragment (427–668), in vitro translated (from UniProt O94776 427-668) (domain or fragment)”, the binding result in assay [9] is reported as “binds”.
On to “MTA2 N-terminal fragment (1–434), in vitro translated (from UniProt O94776 1-434) (domain or fragment)”, for which the binding result in assay [9] was “no binding”.
As for “HDAC2 (endogenous, 293T) (from UniProt Q92769 1-488) (enzyme)”, the binding result in assay [3] is “binds”; in assay [4] it was “binds”; in assay [5], “no binding”; in [6] it was “no binding”; in assay [7] it was “binds”.
On to “CHD4 (endogenous, 293T) (from UniProt Q14839 1-1912)”, for which the binding result was “no binding” in assay [6], “binds” in assay [7] and “binds” in assay [8].
On to “Flag-tagged MTA2 N-terminal region 1–434, expressed in 293T cells (from UniProt O94776 1-434) (domain or fragment)”, for which the binding result in [2] is on record as “no binding”.
For “MTA1(454–715), in vitro translated (from UniProt Q13330 454-715) (domain or fragment)”, the binding entry in [10], in assay [11] and in assay [9] was “binds” in each case.
